# Data published in the supplement of paper PMC8728848.
# The list shows a part of the results.
# What was measured:
# Assay in all cases: glycan array binding signal (z-score within array); higher = stronger binding
# Conditions in all cases: glycan notation: IUPAC condensed, linker removed
# Fuc(a1-2)Gal = biological target: Fuc(a1-2)Gal
# How it was run: (§1)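 Glycan array binding is given as a within-array Z-score, which can be read as non-binding when negative. The arrays, 3228 of them, came from the Consortium for Functional Glycomics database and were retained only where the protein sequence was available. Z-scores were averaged across arrays of the same protein sequence at different concentrations or buffers and across linkers.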
# Fuc(a1-2)Gal(b1-3)GalNAc = biological target: Fuc(a1-2)Gal(b1-3)GalNAc
# How it was run: as §1
# [1] = biological target: Fuc(a1-2)Gal(b1-3)GalNAc(b1-3)Gal
# How it was run: as §1
# [2] = biological target: Fuc(a1-2)Gal(b1-3)GalNAc(b1-3)Gal(a1-4)Gal(b1-4)Glc
# How it was run: as §1
# [3] = biological target: Fuc(a1-2)Gal(b1-3)GalNAc(b1-4)[Neu5Ac(a2-3)]Gal(b1-4)Glc
# How it was run: as §1
# Fuc(a1-2)Gal(b1-3)GlcNAc = biological target: Fuc(a1-2)Gal(b1-3)GlcNAc
# How it was run: as §1
# [4] = biological target: Fuc(a1-2)Gal(b1-3)GlcNAc(b1-3)Gal(b1-4)Glc
# How it was run: as §1
# [5] = biological target: Fuc(a1-2)Gal(b1-3)[Fuc(a1-4)]GlcNAc
# How it was run: as §1
# Fuc(a1-2)Gal(b1-4)Glc = biological target: Fuc(a1-2)Gal(b1-4)Glc
# How it was run: as §1
# Fuc(a1-2)Gal(b1-4)Glc6S = biological target: Fuc(a1-2)Gal(b1-4)Glc6S
# How it was run: as §1
# Fuc(a1-2)Gal(b1-4)GlcNAc = biological target: Fuc(a1-2)Gal(b1-4)GlcNAc
# How it was run: as §1
# [6] = biological target: Fuc(a1-2)Gal(b1-4)GlcNAc(b1-3)Gal(b1-4)GlcNAc
# How it was run: as §1
# [7] = biological target: Fuc(a1-2)Gal(b1-4)GlcNAc(b1-3)Gal(b1-4)GlcNAc(b1-3)Gal(b1-4)GlcNAc
# How it was run: as §1
# [8] = biological target: Fuc(a1-2)Gal(b1-4)GlcNAc6S
# How it was run: as §1
# [9] = biological target: Fuc(a1-2)Gal(b1-4)[Fuc(a1-3)]GlcNAc
# How it was run: as §1
# [10] = biological target: Fuc(a1-2)Gal(b1-4)[Fuc(a1-3)]GlcNAc(b1-3)Gal(b1-4)[Fuc(a1-3)]GlcNAc
# How it was run: as §1
# [11] = biological target: Fuc(a1-2)Gal(b1-4)[Fuc(a1-3)]GlcNAc(b1-3)Gal(b1-4)[Fuc(a1-3)]GlcNAc(b1-3)Gal(b1-4)[Fuc(a1-3)]GlcNAc
# How it was run: as §1
# Fuc(a1-2)Gal6S(b1-4)Glc = biological target: Fuc(a1-2)Gal6S(b1-4)Glc
# How it was run: as §1
# [12] = biological target: Fuc(a1-2)Gal6S(b1-4)Glc6S
# How it was run: as §1
# [13] = biological target: Fuc(a1-2)Gal6S(b1-4)GlcNAc
# How it was run: as §1
# Fuc(a1-2)[Gal(a1-3)]Gal = biological target: Fuc(a1-2)[Gal(a1-3)]Gal
# How it was run: as §1
# [14] = biological target: Fuc(a1-2)[Gal(a1-3)]Gal(b1-3)GlcNAc
# How it was run: as §1
# [15] = biological target: Fuc(a1-2)[Gal(a1-3)]Gal(b1-4)Glc
# How it was run: as §1
# [16] = biological target: Fuc(a1-2)[Gal(a1-3)]Gal(b1-4)GlcNAc
# How it was run: as §1
# [17] = biological target: Fuc(a1-2)[Gal(a1-3)]Gal(b1-4)[Fuc(a1-3)]GlcNAc
# How it was run: as §1
# [18] = biological target: Fuc(a1-2)[Gal(a1-4)]Gal(b1-4)GlcNAc
# How it was run: as §1
# [19] = biological target: Fuc(a1-2)[GalNAc(a1-3)]Gal
# How it was run: as §1
# [20] = biological target: Fuc(a1-2)[GalNAc(a1-3)]Gal(b1-3)GlcNAc
# How it was run: as §1
# [21] = biological target: Fuc(a1-2)[GalNAc(a1-3)]Gal(b1-4)Glc
# How it was run: as §1
# [22] = biological target: Fuc(a1-2)[GalNAc(a1-3)]Gal(b1-4)GlcNAc
# How it was run: as §1
# [23] = biological target: Fuc(a1-2)[GalNAc(a1-3)]Gal(b1-4)[Fuc(a1-3)]GlcNAc
# How it was run: as §1
# [24] = biological target: Fuc(a1-2)[GalNAc(a1-4)]Gal(b1-4)GlcNAc
# How it was run: as §1
# [25] = biological target: Fuc(a1-2)[GalNAc(b1-3)]Gal
# How it was run: as §1
# Fuc(a1-3)GlcNAc = biological target: Fuc(a1-3)GlcNAc
# How it was run: as §1
# [26] = biological target: Fuc(a1-3)[Gal(b1-4)]Glc6S
# How it was run: as §1
# [27] = biological target: Fuc(a1-3)[Gal(b1-4)]GlcNAc
# How it was run: as §1
# [28] = biological target: Fuc(a1-3)[Gal(b1-4)]GlcNAc(b1-2)Man(a1-3)[Fuc(a1-3)[Gal(b1-4)]GlcNAc(b1-2)Man(a1-6)]Man(b1-4)GlcNAc(b1-4)GlcNAc
# How it was run: as §1
binder,measurement,setting,value
"MUC1-SEA-mFcIgG2a (Homo sapiens), P15941 (SEA domain only) (protein) DAAQPARRAVRSSSELTSEQKLISEEDLSRLVHNGTSARATTTPASKSTPFSIPSHHSDTPTTLASHSTKTDASSTHHSTVPPLTSSNHSTSPQLSTGVSFFFLSFHISNLQFNSSLEDPSTDYYQELQRDISEMFLQIYKQGGFLGLSNIKFRPGSVVVQLTLAFREGTINVHDVETQFNQYKTEAASRYNLTISDASVSDVPFPFSAQSGSDDDDKALEPRGPTIKPCPPCKCPAPNLLGGPSVFIFPPKIKDVLMISLSPIVTCVVVDVSEDDPDVQISWFVNNVEVHTAQTQTHREDYNSTLRVVSALPIQHQDWMSGKEFKCKVNNKDLPAPIERTISKPKGSVRAPQVYVLPPPEEEMTKKQVTLTCMVTDFMPEDIYVEWTNNGKTELNYKNTEPVLDSDGSYFMYSKLRVEKKNWVERNSYSCSVVHEGLHNHHTTKSFSRTPGKHHHHH",glycan array binding signal (z-score),Fuc(a1-2)Gal,-0.228
same,glycan array binding signal (z-score),Fuc(a1-2)Gal(b1-3)GalNAc,-0.514
same,glycan array binding signal (z-score),[1],7.39
same,glycan array binding signal (z-score),[2],-0.439
same,glycan array binding signal (z-score),[3],-0.138
same,glycan array binding signal (z-score),Fuc(a1-2)Gal(b1-3)GlcNAc,0.04
same,glycan array binding signal (z-score),[4],-0.293
same,glycan array binding signal (z-score),[5],-0.241
same,glycan array binding signal (z-score),Fuc(a1-2)Gal(b1-4)Glc,0.163
same,glycan array binding signal (z-score),Fuc(a1-2)Gal(b1-4)Glc6S,-0.327
same,glycan array binding signal (z-score),Fuc(a1-2)Gal(b1-4)GlcNAc,-0.377
same,glycan array binding signal (z-score),[6],-0.323
same,glycan array binding signal (z-score),[7],-0.213
same,glycan array binding signal (z-score),[8],-0.347
same,glycan array binding signal (z-score),[9],-0.269
same,glycan array binding signal (z-score),[10],-0.477
same,glycan array binding signal (z-score),[11],0.459
same,glycan array binding signal (z-score),Fuc(a1-2)Gal6S(b1-4)Glc,0.033
same,glycan array binding signal (z-score),[12],1.99
same,glycan array binding signal (z-score),[13],0.294
same,glycan array binding signal (z-score),Fuc(a1-2)[Gal(a1-3)]Gal,0.424
same,glycan array binding signal (z-score),[14],-0.155
same,glycan array binding signal (z-score),[15],0.103
same,glycan array binding signal (z-score),[16],-0.528
same,glycan array binding signal (z-score),[17],0.281
same,glycan array binding signal (z-score),[18],0.211
same,glycan array binding signal (z-score),[19],-0.446
same,glycan array binding signal (z-score),[20],-0.439
same,glycan array binding signal (z-score),[21],-0.086
same,glycan array binding signal (z-score),[22],-0.428
same,glycan array binding signal (z-score),[23],-0.497
same,glycan array binding signal (z-score),[24],-0.184
same,glycan array binding signal (z-score),[25],-0.373
same,glycan array binding signal (z-score),Fuc(a1-3)GlcNAc,0.737
same,glycan array binding signal (z-score),[26],-0.181
same,glycan array binding signal (z-score),[27],0.485
same,glycan array binding signal (z-score),[28],0.178
